Source: PubChem BioAssay AID938 (National Center for Advancing Translational Sciences (NCATS), 2007)
Out of some 73,000 compounds screened, about 1,800 (2.5%) were called active. The inconclusive results got no clear call from the source; some entries with a clear call stand among them for comparison. Calls follow the shape of the dose curve; as a rule, active = well fitted activation curve with a large enough effect; inconclusive = small, poorly fitted or top-dose-only effect; inactive = no such curve, though single readings can be large or run the other way. Potencies of inconclusive entries are left out as doubtful fits.

Assay: qHTS Assay for Agonists of the Thyroid Stimulating Hormone Receptor: Activators of Intracellular cAMP Concentrations in Parental HEK 293; also: nearly all actives have a fitted effect of over 55% in size; as to activation: % of control where 0% means no effect
Conditions: parental HEK293 CNG cAMP sensor, membrane potential fluorescence; activation: at 57.1 µM (top of the series) unless noted
Summary of the method: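 Parental HEK 293 cells stably expressing a modified CNG channel (no TSHR) report cAMP rise as membrane depolarization. Membrane potential dye with 100 uM RO 20-1724 was loaded for 60 min at room temperature, then compound added for 30 min; fluorescence read at 590 nm.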
Potency is read from the fitted curve at half-maximal effect; tags tell the direction and shape of the fitted curve.

| Structure (SMILES) | Potency | activation |
| --- | --- | --- |
| Cc1cc(C(=O)N2CCN(c3cccc(Cl)c3)CC2)c(C)o1 | inconclusive [activator, partial curve] | – |
| O=C1C(=C(O)c2ccccc2)C(=O)c2ccccc21 | – | inactive: -13.5% |
| CC1CN(C(=O)CSc2ncnc3sccc23)CC(C)O1 (stereo not given) | – | inactive: 1.09% |
| CN(C)c1ncc2ncc(=O)n(Cc3ccc(F)cc3)c2n1 | inconclusive [activator, full curve] | – |
| O=C1C2=C(Nc3ccccc3SC2c2ccco2)c2ccccc21 (stereo not given) | – | inactive: -23.1% |
| COc1ccc(-c2nc3cnc(N4CCN(C)CC4)nc3n(CCc3ccccc3)c2=O)cc1 | – | inactive: -4.04% |
| Cc1c(C(=O)NCc2cccnc2)sc2ncn(CC(=O)N3CCCCC3C)c(=O)c12 (stereo not given) | inconclusive [activator, single point] | – |
| Cc1cccc(NC(=O)CSc2nnc(CCCCCNC(=O)OC(C)(C)C)o2)c1C | inconclusive [activator, partial curve] | – |
| COc1cccc2c1[C@H](CO)N1[C@H](C#N)[C@@H]3C[C@H](C(=O)O)[C@@H]([C@@H]1C2)N3C | – | inactive: 2.58% [at 11.4 µM] |
| Cn1c(=O)[nH]c(=O)c2c1nc(CN1CCN(c3ccccc3F)CC1)n2CC(N)=O | inconclusive [activator, single point] | – |
| CCN1C(=S)SC(=O)C1=C1C=C(C)N(CCO)C(C)=C1 | – | inactive: 3.66% [at 2.29 µM] |
| CCOC(=O)c1ccc(NC(=O)CSc2nc(SC)ns2)cc1 | inconclusive [activator, single point] | – |
| N#Cc1c(/N=C/c2cccs2)sc2c1CCC2 | – | inactive: 3.84% |
| Cc1nc2cnc(Oc3ccccc3)nc2n(C)c1=O | inconclusive [activator, single point] | – |
| Cc1onc(-c2ccccc2)c1C(=O)N1CCc2ccccc21 | inconclusive [activator, partial curve] | – |
| CN(C)c1ncc2nc(-c3cccs3)c(=O)n(C)c2n1 | – | inactive: 18.4% |
| O=c1c(CCc2ccccc2)nc2cnc(N3CCOCC3)nc2n1Cc1ccc(F)cc1 | inconclusive [activator, partial curve] | – |
| COc1ccccc1CCn1c(=O)c(-c2cccc(F)c2)nc2cncnc21 | inconclusive [activator, full curve] | – |
| O=C(Oc1ccnc2cc(Cl)ccc12)N1CCCCCC1 | inconclusive [activator, partial curve] | – |
| C(/C=C\c1ccccc1)=Nc1ccc2c(c1)Cc1ccccc1-2 | – | inactive: -2.16% [at 11.4 µM] |
| COc1ccccc1C(c1nnnn1C1CCCC1)N1CCN2CCCC2C1 (stereo not given) | inconclusive [activator, single point] | – |
| Cc1cc(OCC(=O)NCCCN(C)C)cc(C)c1Br | inconclusive [activator, single point] | – |
| COC(=O)[C@@]1(Cc2ccc(F)cc2)[C@H]2c3cc(C(=O)N(C)C)n(Cc4ccccn4)c3C[C@H]2CN1C(=O)c1ccccc1 | inconclusive [activator, partial curve] | – |
| O=C(c1cc(C(F)(F)F)cc(C(F)(F)F)c1)N1CCC2(CC1)CN(Cc1ccccc1)C2 | – | inactive: -5.98% |

| Structure (SMILES) | Potency | activation |
| --- | --- | --- |
| CCn1c(C(=O)N2CCCC(C(=O)NCCCc3ccccc3)C2)cc2sccc21 (stereo not given) | inconclusive [activator, partial curve] | – |
| Cn1c(/C(C#N)=C/C2CC=CCC2)nc2ccccc21 (stereo not given) | – | inactive: -4.15% |
| Cc1cc(/C=N/n2cnnc2)c(C)n1-c1ccc(C(=O)O)cc1 | inconclusive [activator, single point] | – |
| Cc1ccc(CNc2ccc(O)cc2)cc1 | – | inactive: -14% |
| COc1cc(CNC2CCCC2)cc(OC)c1 | inconclusive [activator, partial curve] | – |
| O=C(C[C@@H](C(=O)O)N1CCOCC1)c1ccccc1 | – | inactive: -1.57% [at 11.4 µM] |
| O=C1C[C@@H](O)[C@@H](O)[C@@H]2[C@H]3C(=O)N(c4ccc(F)cc4F)C(=O)[C@@H]3CC[C@H]12 | – | inactive: -4.34% [at 11.4 µM] |
| COc1ccccc1C(=O)N1CCNC(=O)C1CC(=O)Nc1ccc(Cl)cc1 (stereo not given) | inconclusive [activator, single point] | – |
| Nc1nc(SCc2ccccc2)c2ncn(Cc3ccccc3)c2n1 | – | inactive: 6.31% [at 11.4 µM] |
| Cc1cc2c(cc(C(=O)OCC(=O)NCc3cccs3)n2C(C)C)o1 | inconclusive [activator, partial curve] | – |
| c1ccc(-c2cc3c(-n4cccc4)ncnc3o2)cc1 | active: 20 µM | – |
| CNCCCCOc1ccccc1Cc1ccccc1 | inconclusive [activator, partial curve, poor fit] | – |
| O=C(O)Cc1ccc(O)c(O)c1 | inconclusive [activator, single point] | – |
| Nc1ncnc2c([C@@H]3O[C@@H](CO)[C@H](O)[C@@H]3O)nsc12 | – | inactive: -4.85% [at 11.4 µM] |
| CC(C)c1ccc(OCc2nc(-c3ccccn3)no2)c(Br)c1 | inconclusive [activator, single point] | – |
| CCOc1ccc(NC(=O)CCn2cccc2)cc1 | inconclusive [activator, single point] | – |
| c1ccn(-c2ncnc3sc4c(c23)CCCC4)c1 | inconclusive [activator, single point] | – |
| COC(=O)[C@@]1(Cc2ccc(OC)cc2)[C@H]2c3cc(C(=O)N(C)C)n(Cc4ccsc4Br)c3C[C@H]2CN1C(=O)c1ccccc1 | active: 6.31 µM | – |
| CCCCC(CC)CNC(=O)c1cccs1 (stereo not given) | inconclusive [activator, partial curve] | – |
| CCCCC1CCC(c2nc(-c3ccccn3)no2)CC1 (stereo not given) | inconclusive [activator, single point] | – |
| Cc1cc(N2CCCCC2)n2nc(C)c(-c3ccccc3)c2n1 | – | inactive: 38.4% |
| Cc1c(C(=O)OCC2CCCO2)[nH]c2c1C(=O)CC(c1ccco1)C2 (stereo not given) | – | inactive: 2.84% |
| O=S(=O)(Nn1cnnc1)c1ccccc1Cl | inconclusive [activator, single point] | – |
| COC(=O)C1=C(C)N=c2s/c(=C/c3ccoc3)c(=O)n2C1c1ccccc1 (stereo not given) | – | inactive: 14.7% |

| Structure (SMILES) | Potency | activation |
| --- | --- | --- |
| CCC(C)c1ccccc1O (stereo not given) | inconclusive [activator, partial curve, poor fit] | – |
| Oc1ccc(Br)cc1CN1CCCCCCC1 | inconclusive [activator, single point] | – |
| Fc1ccc(CSc2ncnc3c2oc2ccccc23)cc1 | inconclusive [activator, single point] | – |
| CCCN(CCC)S(=O)(=O)c1cc(Br)cc2c1N(C(=O)CC)CC2 | active: 25.1 µM | – |
| CCOC(=O)c1c(C)n(OCc2ccccc2)c2ccc3c(no[n+]3[O-])c12 | inconclusive [activator, partial curve] | – |
| CO[C@@H]1COC(=O)[C@H](CCSC)NC(=O)C/C=C\[C@@H](C)COC(=O)[C@@H]2CCCN2C(=O)C/C=C\[C@H]1C | – | inactive: -1.65% [at 11.4 µM] |
| Cn1c(=O)n(CC(=O)NC2CCCCC2)c(=O)c2ccccc21 | inconclusive [activator, single point] | – |
| N=C1[C@@H](O)[C@]2(I)c3ccccc3N3C(=N)[C@H](O)[C@@H]4c5ccccc5N1[C@@H]4[C@@H]32 | inconclusive [activator, full curve, poor fit] | – |
| Cc1ccccc1OC(C)c1nc(-c2ccccc2)no1 (stereo not given) | inconclusive [activator, single point] | – |
| Cc1noc(C)c1COc1cccc(C(=O)OCCOc2ccc(F)cc2)c1 | inconclusive [activator, partial curve] | – |
| CN(C)c1ccc(-c2ccc3ncnc(N(C)Cc4ccco4)c3c2)cc1 | inconclusive [activator, single point] | – |
| COc1ccccc1CN1CC[C@@]2(CCCN(C(=O)c3cc(C(F)(F)F)cc(C(F)(F)F)c3)C2)C1 | inconclusive [activator, full curve] | – |
| O=C(NC(=Nc1ccccc1)N1CCOCC1)Nc1ccccc1 | inconclusive [activator, single point] | – |
| COC(=O)c1ccc(C(/C=C/[C@@H](C)C(=O)NCc2ccccc2)NC(=O)OCc2ccccc2)cc1 (stereo not given in full) | inconclusive [activator, partial curve] | – |
| Cc1nn(C)c(C)c1S(=O)(=O)N1CCCC(C(=O)NC2CCCCCC2)C1 (stereo not given) | inconclusive [activator, single point] | – |
| N#Cc1ccc(CSc2ncnc3c2cnn3Cc2ccccc2)cc1 | inconclusive [activator, full curve, poor fit] | – |
| CSc1ncccc1C(=O)OCc1ccccc1F | inconclusive [activator, single point] | – |
| CC1CN(c2nc3ccccc3nc2C(C#N)C(=O)NCc2ccc3c(c2)OCO3)CC(C)O1 (stereo not given) | – | inactive: 11.8% |
| C#CCCCO/N=C1/C[C@@H](O)[C@@H](O)[C@@H]2[C@@H]3C(=O)N(C4CCCCC4)C(=O)[C@H]3CC[C@@H]12 | – | inactive: -11.3% [at 11.4 µM] |
| O=C(c1ccncc1)N1CCC2(CCCN(c3cccc(-c4ccccc4)c3)C2)CC1 | – | inactive: -0.133% |
| COc1ccccc1S(=O)(=O)Cc1ccc(C(=O)N2CCN(c3ccccc3)CC2)o1 | – | inactive: 18.6% |
| C=CCn1c(=O)c(C(=O)Nc2ccccc2O)c(O)c2ccccc21 | inconclusive [activator, single point] | – |
